Data as given in patent US20250121006A1, “THERAPEUTIC COMBINATIONS COMPRISING ANTI-STEAP2 CHIMERIC ANTIGEN RECEPTOR T CELLS” (AstraZeneca AB, priority 2023, published 2025).

What was measured:
[1] = system: prostate-specific antigen (PSA), LuCaP73 tumors; experiment: Serum PSA by ELISA, LuCaP73 PDX model; details: Day 42, all dosages (10, 30, 50, 80 mg/kg)
AZD0754 CAR-T cells = experiment: CAR-T cells in blood at day 42, combination study; details: day 42 blood; enzalutamide 10 mg/kg with AZD0754
IFNγ = IFNγ release by CAR T cells in co-culture with LNCAP cells; format: cell-based; details: 5 uM vs DMSO; co-cultured with LNCAP cells; supernatant 24 hours after CAR T cell treatment
Experimental: (§1) LNCAP cells were pre-treated with either 0 or 5 uM of abiraterone or enzalutamide, or DMSO, for 24 hours in complete media. Then, AZD0754 or untransduced T cells were added with or without abiraterone or enzalutamide at a concentration of 5 uM. IFNγ release was also measured by harvesting the cell culture supernatant following 24 hours after CAR T cell treatment. […] Cells were subsequently harvested and RNA extracted for qPCR analysis.
(§2) 5 uM abiraterone treatment was compared to DMSO, and CAR T cells were compared to untransduced T cells (UT), wherein the LNCAP and/or CAR T or UT cells were pre-treated (PreTx) with abiraterone.

[2] = system: AR, STEAP2 and KLK3 expression in LuCaP70 tumors; experiment: LuCaP70 tumor expression of AR, STEAP2 and KLK3 after enzalutamide; format: in vivo, mice; details: 10, 30, 50, or 80 mg/kg, day 21
[3] = system: prostate-specific antigen (PSA), LuCaP70 tumors; experiment: Serum PSA by ELISA, LuCaP70 PDX model; details: Day 21, all dosages (10, 30, 50, 80 mg/kg)
LuCaP86.2 PDX model = experiment: Enzalutamide treatment of LuCaP86.2 PDX model (tumor volume, body weight); details: 10, 30, 50, or 80 mg/kg, vs vehicle
LNCAP cells [4] = experiment: Prostate cell line proliferation, LNCAP; details: compared to 22RV1 cells
LuCaP70 PDX model = experiment: Enzalutamide treatment of LuCaP70 PDX model (tumor volume, body weight); details: 10, 30, 50, or 80 mg/kg
22RV1 cells = experiment: Prostate cell line proliferation, 22RV1
LNCAP cells [5] = experiment: CAR T cell killing capacity in co-culture with LNCAP cells; format: cell-based; details: 5 uM vs DMSO; co-cultured with LNCAP cells; with or without pre-treatment
Experimental: as §1, §2

STEAP2 in LNCAP cells [6] = details: 24, 48, and 72 hours post-treatment
STEAP2 in LNCAP cells [7] = experiment: STEAP2 receptor density and antigen binding capacity (ABC) after continuous enzalutamide exposure; format: cell-based
Experimental: STEAP2 receptor density and antigen binding capacity (ABC) after continuous enzalutamide exposure was also measured in LNCAP cells over a 28 day period.

[8] = system: AR and STEAP2 expression in LuCaP73 tumors; experiment: LuCaP73 tumor expression of AR and STEAP2 after enzalutamide; format: in vivo, mice; details: 10 mg/kg, day 42, normalized to GAPDH
Experimental: FIGS. 3A-3B show LuCaP73 tumor expression of androgen receptor (AR; FIG. 3A) and STEAP2 (FIG. 3B) at day 42 following treatment with vehicle or 10 mg/kg enzalutamide (Enza). AR and STEAP2 expression levels were normalized to GAPDH levels.

[9] = system: STEAP2 membrane staining in LuCaP70 tumors; experiment: STEAP2 immunohistochemistry (IHC) in LuCaP70 tumors; format: in vivo, mice
Description: FIGS. 5D-5E show STEAP2 expression levels in LuCaP70 tumors based on immunohistochemistry (IHC) using an anti-STEAP2 antibody and calculated intensity of tumor membrane staining and percentage of cells stained (H-score; FIG. 5D) and by percent membrane staining in tumors (FIG. 5E) (* indicates p<0.05). […].

LuCaP73 PDX model = experiment: Enzalutamide treatment of LuCaP73 PDX model (tumor volume, body weight); format: in vivo, mice
Experimental: . Enzalutamide was administered orally, once a day. […] .

Androgen receptor = experiment: qPCR of downstream androgen receptor target expression in LNCAP cells; format: cell-based; details: 5 uM, 72 hours, vs media, DMSO
Experimental: as §1

Compound: CNC(=O)c1ccc(N2C(=S)N(c3ccc(C#N)c(C(F)(F)F)c3)C(=O)C2(C)C)cc1F [enzalutamide]
- Serum PSA [1]: significant decreased in serum PSA
- Effect on CAR T cell viability (AZD0754 CAR-T cells): not having a negative effect on CAR T cell viability
- Effect on CAR T cell viability and phenotype (AZD0754 CAR-T cells): not having a negative effect on CAR T cell viability and phenotype
- Effect on IFNγ release by the CAR T cells (IFNγ): did not appear to have an effect
- Tumor expression of KLK3 [2]: did not have significant changes in expression levels
- Tumor expression of STEAP2 [2]: significant dose-dependent increase
- Tumor expression of androgen receptor (AR) [2]: significant dose-dependent increase
- Serum PSA [3]: significant decreased in serum PSA
- Body weight (LuCaP86.2 PDX model): no significant variations in body weight
- LNCAP prostate cell line proliferation (LNCAP cells [4]): more sensitive to androgen receptor antagonist treatment compared to 22RV1 cells
- Body weight (LuCaP70 PDX model): improvement in body weight
- 22RV1 prostate cell line proliferation (22RV1 cells): dose dependent manner
- Effect on CAR T killing capacity (LNCAP cells [5]): did not appear to have an effect
- STEAP2 expression (flow cytometry) (STEAP2 in LNCAP cells [6]): No effect on STEAP2 expression
- STEAP2 levels after enzalutamide removal (STEAP2 in LNCAP cells [7]; after day 21, through day 28): STEAP2 levels return to baseline level
- STEAP2 receptor density (mean fluorescence intensity, ABC) (STEAP2 in LNCAP cells [7]; continuous enzalutamide treatment): increases STEAP2 receptor density levels up to 21 days
- Tumor expression of STEAP2 [8]: increased
- Tumor expression of androgen receptor (AR) [8]: increased
- STEAP2 1+ distribution of membrane score ([9]; 80 mg/kg): approximately 2%
- STEAP2 2+ distribution of membrane score ([9]; 80 mg/kg): approximately 52%
- STEAP2 3+ distribution of membrane score ([9]; 80 mg/kg): approximately 46%
- STEAP2 H-score (IHC) ([9]; 80 mg/kg): significant effect (p<0.05)
- STEAP2% tumor distribution of membrane score ([9]; across doses): dose dependent effect
- Tumor volume (LuCaP73 PDX model; LuCaP73 PDX, 10, 30, 50, or 80 mg/kg orally once a day, up to 42 days, vs vehicle): dose-dependent decrease in tumor volume
- Body weight (LuCaP73 PDX model; mice implanted with LuCaP73, 10, 30, 50, or 80 mg/kg): slightly improved

Compound: abiraterone
- Effect on IFNγ release by the CAR T cells (IFNγ): did not appear to have an effect
- Androgen receptor inhibition by qPCR of downstream target expression (Androgen receptor): validated
- LNCAP prostate cell line proliferation (LNCAP cells [4]): more sensitive to androgen receptor antagonist treatment compared to 22RV1 cells
- 22RV1 prostate cell line proliferation (22RV1 cells): dose dependent manner
- Effect on CAR T killing capacity (LNCAP cells [5]): did not appear to have an effect
- STEAP2 expression (flow cytometry) (STEAP2 in LNCAP cells [6]): No effect on STEAP2 expression
